The values below come from ChEMBL document CHEMBL3871290, “3-Cyano-6-(5-methyl-3-pyrazoloamino) pyridines (Part 2): A dual inhibitor of Aurora kinase and tubulin polymerization” (Bioorg Med Chem Lett, 2016).

For data set [1], the system named is Cc1ccc(OCCNc2nc(Nc3cc(C)[nH]n3)cc(C)c2C#N)cn1. Particulars: Homo sapiens.
The test system is the same in data set [2]. Particulars: Homo sapiens. The source holds these as a separate data set.

As for “Fibroblast growth factor receptor 1 (Homo sapiens) (sequence not shown)”, the Michaelis constant (Km) in data set [1] came out at 200 µM. As for “Vascular endothelial growth factor receptor 2 (Homo sapiens) (sequence not shown)”, the Km in data set [2] came to 90 µM.

A word on the Km: it is the substrate concentration at which the rate is half of its maximum.
